Assay results: a collection of fitness landscapes (doi:10.1126/science.1257360)
This is one part of the list.

B1: PhoQ; a variant is named by its letters at X, in order, P23837 (parent)
chain: MKKLLRLFFPLSLRVRFLLATAAVVLVLSLAYGMVALIGYSVSFDKTTFRLLRGESNLFYTLAKWENNKLHVELPENIDKQSPTMTLIYDENGQLLWAQRDVPWLMKMIQPDWLKSNGFHEIEADVNDTSLLLSGDHSIQQQLQEVREDDDDAEMTHSVAVNVYPATSRMPKLTIVVVDTIPVELKSSYMVWSWFIYVLSANLLLVIPLLWVAAWWSLRPIEALAKEVRELEEHNRELLNPATTRELTSLVRNLNRLLKSERERYDKYRTTLTDLTHSLKTPLXXLQXXLRSLRSEKMSVSDAEPVMLEQISRISQQIGYYLHRASMRGGTLLSRELHPVAPLLDNLTSALNKVYQRKGVNISLDISPEISFVGEQNDFVEVMGNVLDNACKYCLEFVEISARQTDEHLYIVVEDDGPGIPLSKREVIFDRGQRVDTLRPGQGVGLAVAREITEQYEGKIVAGESMLGGARMEVIFGRQHSAPKDE

Variants of: B1
Assay: enrichment ratio after two sorts for PhoP signalling (ratio (wild type AVST 3.29)); higher = more functional
Settings: with PhoP (E. coli)

Row | Variant | enrichment ratio
1 | NCCM | ≤ 0.25
2 | FWKN | ≤ 0.25
3 | LHCS | ≤ 0.25
4 | QIWW | ≤ 0.25
5 | LMFH | ≤ 0.25
6 | YGGK | ≤ 0.25
7 | PHYP | ≤ 0.25
8 | IASF | ≤ 0.25
9 | TFMW | ≤ 0.25
10 | GHFF | ≤ 0.25
11 | FEFD | ≤ 0.25
12 | VRAS | ≤ 0.25
13 | ICSD | ≤ 0.25
14 | KNAH | ≤ 0.25
15 | KITR | ≤ 0.25
16 | ATER | ≤ 0.25
17 | FYYM | ≤ 0.25
18 | KIEW | ≤ 0.25
19 | NYRV | ≤ 0.25
20 | IFTV | ≤ 0.25
21 | IKNE | ≤ 0.25
22 | VFLQ | ≤ 0.25
23 | ECYF | ≤ 0.25
24 | SPWK | ≤ 0.25
25 | MCFT | ≤ 0.25

Row | Variant | enrichment ratio
26 | DWWA | ≤ 0.25
27 | TATP | ≤ 0.25
28 | VEFP | ≤ 0.25
29 | LSDP | ≤ 0.25
30 | WGLD | ≤ 0.25
31 | GNRA | ≤ 0.25
32 | HSTP | ≤ 0.25
33 | FFCN | ≤ 0.25
34 | HLSL | 0.631
35 | KAEI | ≤ 0.25
36 | DFFG | ≤ 0.25
37 | TQWI | 1.91
38 | DWDN | ≤ 0.25
39 | DSHT | ≤ 0.25
40 | PPHV | ≤ 0.25
41 | SVRM | ≤ 0.25
42 | MGWS | 3.38
43 | GVCC | 1.17
44 | WEVT | ≤ 0.25
45 | AEFG | 8.7
46 | IVKG | ≤ 0.25
47 | RVPE | ≤ 0.25
48 | HHNM | ≤ 0.25
49 | SEQG | 17.8
50 | VKSS | ≤ 0.25

Row | Variant | enrichment ratio
51 | VHCT | ≤ 0.25
52 | DMPT | ≤ 0.25
53 | IHYG | ≤ 0.25
54 | LRHQ | ≤ 0.25
55 | WAFH | ≤ 0.25
56 | KDEH | ≤ 0.25
57 | KHGS | ≤ 0.25
58 | LIPG | ≤ 0.25
59 | WIFK | ≤ 0.25
60 | PFKI | ≤ 0.25
61 | PLSK | ≤ 0.25
62 | NCDF | ≤ 0.25
63 | YWRH | ≤ 0.25
64 | PSTH | ≤ 0.25
65 | MVYK | 17.6
66 | KRKE | ≤ 0.25
67 | SCYG | ≤ 0.25
68 | WNGA | ≤ 0.25
69 | SFNE | ≤ 0.25
70 | NTAM | ≤ 0.25
71 | FAGL | ≤ 0.25
72 | IQFW | ≤ 0.25
73 | MREG | ≤ 0.25
74 | GTKY | ≤ 0.25
75 | DFWR | ≤ 0.25

Row | Variant | enrichment ratio
76 | KHSP | ≤ 0.25
77 | WWGN | ≤ 0.25
78 | TSNW | ≤ 0.25
79 | QYRV | ≤ 0.25
80 | FCIP | ≤ 0.25
81 | LFDQ | ≤ 0.25
82 | THML | 12.8
83 | SVQM | 1.05
84 | PLCI | ≤ 0.25
85 | VGSK | ≤ 0.25
86 | AMHN | ≤ 0.25
87 | TPRQ | ≤ 0.25
88 | RYPH | ≤ 0.25
89 | ESCM | ≤ 0.25
90 | YSHD | ≤ 0.25
91 | MLGT | ≤ 0.25
92 | FNYQ | ≤ 0.25
93 | RRPH | ≤ 0.25
94 | WQSC | ≤ 0.25
95 | NYLM | ≤ 0.25
96 | TYGG | ≤ 0.25
97 | RWVE | ≤ 0.25
98 | MATD | ≤ 0.25
99 | SPPR | ≤ 0.25
100 | IIPH | ≤ 0.25

Row | Variant | enrichment ratio
101 | VTIP | ≤ 0.25
102 | YCAV | ≤ 0.25
103 | ELLC | ≤ 0.25
104 | LLLH | ≤ 0.25
105 | QHQF | ≤ 0.25
106 | TKIR | ≤ 0.25
107 | EDMN | ≤ 0.25
108 | PWTK | ≤ 0.25
109 | HSMH | ≤ 0.25
110 | YCCW | ≤ 0.25
111 | IVTL | ≤ 0.25
112 | PLCC | ≤ 0.25
113 | LRSH | ≤ 0.25
114 | KIRK | ≤ 0.25
115 | EYQT | ≤ 0.25
116 | IHNP | ≤ 0.25
117 | SMIF | ≤ 0.25
118 | RAFE | ≤ 0.25
119 | DQLI | ≤ 0.25
120 | DIGN | ≤ 0.25
121 | GFKF | ≤ 0.25
122 | YRWW | ≤ 0.25
123 | MEVL | 11.6
124 | APWL | ≤ 0.25
125 | SYYT | ≤ 0.25

Row | Variant | enrichment ratio
126 | TLTF | ≤ 0.25
127 | IKKS | ≤ 0.25
128 | RANG | ≤ 0.25
129 | RLYQ | ≤ 0.25
130 | ICFH | ≤ 0.25
131 | DWMQ | ≤ 0.25
132 | YPHL | ≤ 0.25
133 | RHAA | ≤ 0.25
134 | VLLS | ≤ 0.25
135 | RGWY | ≤ 0.25
136 | YHNQ | ≤ 0.25
137 | GLYE | ≤ 0.25
138 | FVVY | ≤ 0.25
139 | LRYY | ≤ 0.25
140 | WDPP | ≤ 0.25
141 | WKHC | ≤ 0.25
142 | ITNW | ≤ 0.25
143 | LWVF | ≤ 0.25
144 | DEFD | ≤ 0.25
145 | MPAQ | ≤ 0.25
146 | GLSS | ≤ 0.25
147 | GYRG | ≤ 0.25
148 | EIPE | ≤ 0.25
149 | NWVA | ≤ 0.25
150 | HSPD | ≤ 0.25

Row | Variant | enrichment ratio
151 | KGAG | ≤ 0.25
152 | KVHM | ≤ 0.25
153 | IYPV | ≤ 0.25
154 | YQAN | 0.665
155 | DITF | ≤ 0.25
156 | HSVK | ≤ 0.25
157 | QSME | ≤ 0.25
158 | NSCS | ≤ 0.25
159 | KRPT | ≤ 0.25
160 | QIFM | ≤ 0.25
161 | MPKD | ≤ 0.25
162 | TTDP | ≤ 0.25
163 | QEER | ≤ 0.25
164 | NEKV | ≤ 0.25
165 | TKNW | ≤ 0.25
166 | VHTC | ≤ 0.25
167 | GDGW | ≤ 0.25
168 | EIIV | ≤ 0.25
169 | LIHK | ≤ 0.25
170 | YCPR | ≤ 0.25
171 | SRQL | ≤ 0.25
172 | HESC | ≤ 0.25
173 | KDEV | ≤ 0.25
174 | VGLI | 10.5
175 | IADY | ≤ 0.25

Row | Variant | enrichment ratio
176 | VTTH | ≤ 0.25
177 | ALWK | ≤ 0.25
178 | WFFM | ≤ 0.25
179 | MYAW | ≤ 0.25
180 | LGDV | ≤ 0.25
181 | RLRY | ≤ 0.25
182 | AQVK | ≤ 0.25
183 | HWMM | ≤ 0.25
184 | RDCK | ≤ 0.25
185 | NHPY | ≤ 0.25
186 | GAIG | ≤ 0.25
187 | ARRN | ≤ 0.25
188 | NDPP | ≤ 0.25
189 | FNME | ≤ 0.25
190 | GSMH | 3.55
191 | PGHK | ≤ 0.25
192 | NVYP | ≤ 0.25
193 | QGKN | ≤ 0.25
194 | GHTE | ≤ 0.25
195 | GAVK | ≤ 0.25
